From the RNAGym collection of RNA variant scans (doi:10.7554/elife.90254)
Read counts are not given, so values of variants with three or more changes are uncertain.

B1: LINE1-mini (parent)
chain: GGCAGAGCUCAACACAGCGUGGCAAAGUGGCUGUGGCUAGACUGCC

Variants of: B1
Assay: self-cleavage, relative activity (ratio to wild type); higher = more cleavage; in vitro, sequencing; the parent is a self-cleaving ribozyme

| Variant | self-cleavage |
| --- | --- |
| GGCAGAGCUCAACACAUCGUGGUAAAGUGGCUGCGGCUAGACUUCC [G17U C23U U34C G44U] | 0.01 |
| GGCAGAGCUCAACACACCGUGGCAAACUGGGUGUGGCUAGACUGCC [G17C G27C C31G] | 0.03 |
| GGCAGAGCUCAACACACCGUGGCAAGGUGGCUGUGGCUAGAUUGCC [G17C A26G C42U] | 0.04 |
| GGCAGAGCUCAACACAUCGUGGAAAAGCGGCUGUGGCUAGACUGCA [G17U C23A U28C C46A] | 0.77 |
| GGCAGAGCUCAACACAUCGUGGCAGAGUGGCUGUGGCUAUCCUGCC [G17U A25G G40U A41C] | 0.07 |
| GGCAGAGCUCAACACACCGUGGCAACGUGGCUGUUGUUAGACUGCC [G17C A26C G35U C37U] | 0.02 |
| GGCAGAGCUCAACACACCGUGGCAAAGUGUCUGUGGCUCGACUGCC [G17C G30U A39C] | 0.02 |
| GGCAGAGCUCAACACAUCGUUGCGAAGUGGCUGUGGCUAGACUGCC [G17U G21U A24G] | 0.02 |
| GGCAGAGCUCAACACAUCGUGGCACAGUGGCUGUUGCUCGACUGCC [G17U A25C G35U A39C] | 0.03 |
| GGCAGAGCUCAACACAUCGUGGCAAAGUGGCUGUGGCUAGCCGGCC [G17U A41C U43G] | 0.05 |
| GGCAGAGCUCAACACAUCGUGGAAGAGUAGUUGUGGAUAUACUGCC [G17U C23A A25G G29A C31U C37A G40U] | 0.01 |
| GGCAGAGCUCAACACAUCAUGGCAAAGUGGCUGUGGCAAGACUGCC [G17U G19A U38A] | 0.99 |
| GGCAGAGCUCAACACAUCGUGGCAAAUCGGCUGUGGCUAGACUGCC [G17U G27U U28C] | 0.38 |
| GGCAGAGCUCAACACAUCGUGGCAAGGUGGCUGUGGUUAGACUGCC [G17U A26G C37U] | 0.06 |
| GGCAGAGCUCAACACAUCUUGGCAAAGAGGCUGAGGCUAGACUGCU [G17U G19U U28A U34A C46U] | 0.01 |
| GGCAGAGCUCAACACAUCGUUGCAAACUGGCUGUGGCUAGACUGCC [G17U G21U G27C] | 0.19 |
| GGCAGAGCUCAACACAUCGUGGGAAAGUGGAUGUGGCUAGACUGCC [G17U C23G C31A] | 0.24 |
| GGCAGAGCUCAACACACCGGGGCAAAUUGGCUGUGGCUAGACUGCC [G17C U20G G27U] | 0.12 |
| GGCAGAGCUCAACACACCGUGGCAAAGUGGCUAUGGCUCGACUGCC [G17C G33A A39C] | 0.04 |

| Variant | self-cleavage |
| --- | --- |
| GGCAGAGCUCAACACAUGGUGGCAAAGUGGAUGUGGCUAUACUGCC [G17U C18G C31A G40U] | 0.13 |
| GGCAGAGCUCAACACAUCUUGGCAAAGUGGCUGGGGCUAGUCUGCC [G17U G19U U34G A41U] | 0.1 |
| GGCAGAGCUCAACACACAGUGGCAAAGUGGAUGUGGCUAGACUGCC [G17C C18A C31A] | 0.08 |
| GGCAGAGCUCAACACAUGGUGGCUAAGUGGCUGUGGUUAGACUGAC [G17U C18G A24U C37U C45A] | 0.02 |
| GGCAGAGCUCAACACAUUGCGGCAAAGUGGCUGUGGCUAGACUGCC [G17U C18U U20C] | 0.1 |
| GGCAGAGCUCAACACAUCGUGGCAAAGUGGCUGUGGAUCGACUGAC [G17U C37A A39C C45A] | 0.06 |
| GGCAGAGCUCAACACACCUUGGCAAAGUGGCUGUGCCUAGACUGCC [G17C G19U G36C] | 0.03 |
| GGCAGAGCUCAACACAUCGUGACCAAGUGGUUGUGGCUCUACUGCC [G17U G22A A24C C31U A39C G40U] | 0.01 |
| GGCAGAGCUCAACACAUCGUGGCACAGUGGCUGUGGCUCGACUGAC [G17U A25C A39C C45A] | 0.06 |
| GGCAGAGCUCAACACACCGUGUCAUAGUGUCUGUGGGUAGACUGCC [G17C G22U A25U G30U C37G] | 0.01 |
| GGCAGAGCUCAACACAUCCUGGCAAAGUGGCCGUGGCUAGGCUGCC [G17U G19C U32C A41G] | 0.07 |
| GGCAGAGCUCAACACAUCGUGGCAAAGUGGAUGUCGCUAGACUGCC [G17U C31A G35C] | 0.02 |
| GGCAGAGCUCAACACACGGUGGCAAAGUGGCUGUGGCUAGACUACC [G17C C18G G44A] | 0.01 |
| GGCAGAGCUCAACACACCGUUGCAAAGUGGCUGUGGCAAGACUGCC [G17C G21U U38A] | 0.33 |
| GGCAGAGCUCAACACACCGUUGCAAAGUGGCUGUGGCGAGACUGCC [G17C G21U U38G] | 0.05 |
| GGCAGAGCUCAACACACCGUGGCAAAGUGGCUGGGGCUAGAGUGCC [G17C U34G C42G] | 0.01 |
| GGCAGAGCUCAACACAUCGUGUCAAAGUAGCUGUGGCUAGAUUCCA [G17U G22U G29A C42U G44C C46A] | 0.03 |
| GGCAGAGCUCAACACACCGUGUCAAAGUGGCUGUGGCUCGACUGCC [G17C G22U A39C] | 0.23 |
| GGCAGAGCUCAACACAUAGUGGCAAAGUGGCUGUGGAUAGACUGCC [G17U C18A C37A] | 0.27 |

| Variant | self-cleavage |
| --- | --- |
| GGCAGAGCUCAACACACCGUUGAAAAGUGGCUGUGGCUAGACUGCC [G17C G21U C23A] | 2.14 |
| GGCAGAGCUCAACACACCGUGGCAAACUGACGGUGGCUAGACUGCC [G17C G27C G30A U32G] | 0.04 |
| GGCAGAGCUCAACACACCGUGGCAAAGUGGCUGUGUCUAGACUGUC [G17C G36U C45U] | 0.08 |
| GGCAGAGCUCAACACACCGUGGAAAAGUGGCUGUCGCUAGACUGGC [G17C C23A G35C C45G] | 0.11 |
| GGCAGAGCUCAACACAUCGUGGCAUAGUGGCUGUGGCUCGACUGCC [G17U A25U A39C] | 0.02 |
| GGCAGAGCUCAACACAUCGUGGCAAACUGGCUGUGGCUAGUCUGCC [G17U G27C A41U] | 0.02 |
| GGCAGAGCUCAACACACCGUGGCAAAGUGGCUAUGGCUAGAGGGCC [G17C G33A C42G U43G] | 0.01 |
| GGCAGAGCUCAACACAUCCUGGCAAAGUGGCUGUGGCUAGACUUCC [G17U G19C G44U] | 0.04 |
| GGCAGAGCUCAACACACCGUGGCAAAGUGGCGGUGCCUAGACUGCC [G17C U32G G36C] | 0.13 |
| GGCAGAGCUCAACACACCGUGGCAAAGUGGCUUUGGCUAGUCUGCC [G17C G33U A41U] | 0.01 |
| GGCAGAGCUCAACACAUCGUGGCCAAGUUGCUGUGGCUAGACUGCC [G17U A24C G29U] | 0.09 |
| GGCAGAGCUCAACACAUCGUUGCAGAGUGGCUGUGGCUAGACUGCC [G17U G21U A25G] | 0.06 |
| GGCAGAGCUCAACACAUCGUGGCAAAAUGGCUGUGGCUAGAAUGCC [G17U G27A C42A] | 0.03 |
| GGCAGAGCUCAACACACCGUGGCAAAGUGGCUUUGGCGAGACUGCC [G17C G33U U38G] | 0.03 |
| GGCAGAGCUCAACACAUCGUGGCACAGUGGCUGUGGCUAGACUGCG [G17U A25C C46G] | 0.06 |
| GGCAGAGCUCAACACAUCGUGGCAAAAUGGCUGUGGUUAGACUGCC [G17U G27A C37U] | 0.03 |
| GGCAGAGCUCAACACACCGUGGCAAAGUGGUUGUAGGUAGACUGCC [G17C C31U G35A C37G] | 0.01 |
| GGCAGAGCUCAACACACCGUGUCAAAGUGGCUGUGCCUAGACUGCC [G17C G22U G36C] | 0.02 |
